The full ranking holds about 33,000 sequences; the median of “E-score (-0.5 to 0.5)” is about -0.032, and the highest 2% start at about 0.36. The list shows a part of the results.
target: T1, Sko1 (UniProt Q02100); assay: PBM E-score (8-mer binding enrichment) (E-score (-0.5 to 0.5)); higher = stronger / more preferred TF binding; most listed sequences are background and not binding sites; details: protein concentration: 200 nM; construct: GST-full length
T1 sequence: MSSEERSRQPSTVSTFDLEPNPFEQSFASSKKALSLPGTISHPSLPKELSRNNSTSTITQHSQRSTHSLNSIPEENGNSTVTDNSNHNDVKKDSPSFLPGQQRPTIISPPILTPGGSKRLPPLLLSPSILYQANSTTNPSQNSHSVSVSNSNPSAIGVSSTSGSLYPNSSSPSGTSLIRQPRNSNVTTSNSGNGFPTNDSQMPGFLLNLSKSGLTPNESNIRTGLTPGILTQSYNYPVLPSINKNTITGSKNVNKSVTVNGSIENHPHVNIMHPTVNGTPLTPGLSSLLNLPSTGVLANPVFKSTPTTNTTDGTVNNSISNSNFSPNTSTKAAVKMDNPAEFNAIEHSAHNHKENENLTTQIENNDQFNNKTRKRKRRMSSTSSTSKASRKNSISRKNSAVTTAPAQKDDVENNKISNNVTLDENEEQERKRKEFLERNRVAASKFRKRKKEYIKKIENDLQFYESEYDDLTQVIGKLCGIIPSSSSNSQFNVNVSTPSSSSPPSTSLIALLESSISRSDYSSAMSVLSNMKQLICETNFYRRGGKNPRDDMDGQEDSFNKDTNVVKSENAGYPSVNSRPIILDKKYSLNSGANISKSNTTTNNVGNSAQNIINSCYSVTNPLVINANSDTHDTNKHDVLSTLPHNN
Method: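 Universal 'all 10-mer' protein binding microarrays (Agilent AMADID 015681) probed with GST-tagged S. cerevisiae TFs (full-length or DBD) made by in vitro transcription/translation (PURExpress), about 100-200 nM. Bound TF was detected with fluorescent anti-GST. Each ungapped 8-mer (which stands for itself and its reverse complement) is scored by the PBM enrichment score (E-score), a modified Wilcoxon-Mann-Whitney statistic from -0.5 to +0.5, computed with the Universal PBM Analysis Suite. Scale: above 0.35 generally sequence-specific binding.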

Sequence | PBM E-score
AAGGCATC | -0.187
GTGTAAAC | 0.112
ATGTATCG | 0.223
ATCAGGTG | -0.0909
ACCGGGGA | -0.137
ACGTTTGG | 0.296
ACACTGCA | -0.0506
TGAGATCA | 0.175
AGCCAACC | -0.0256
AAGACGAC | 0.0714
CTTCTTCC | -0.104
ATTTAACA | 0.167
AGAAAGGA | -0.0728
ACCAGAAC | -0.0151
AATCAAAT | 0.0198
ATACTCAT | 0.209
CGCGTCAG | 0.222
GAGAGGAA | -0.15
CGGAAAAA | 0.0964
AACTGTGG | -0.0872
CCAATTCC | -0.0935
ATTATCGC | 0.128
AGGCAGGC | -0.241
ATGGACAA | 0.0478
AGGGTATG | 0.0638

Sequence | PBM E-score
CATTTTGG | -0.0106
GATACACA | -0.124
CTAAATCA | 0.0953
AGAAATAG | 0.173
GTACCCGA | -0.169
CTCTCCGA | -0.196
ACACTGCT | -0.111
ACTGAGAG | -0.173
AGCGATTG | -0.0784
TGCCAGAA | -0.224
GAGAAGAA | -0.0866
TACTTGCA | 0.0642
ACGGTACG | 0.256
ACTTCTAA | -0.0244
GCCCGTCC | -0.338
GTGGCATA | -0.155
GGGTCTGA | -0.0894
CCTACATA | -0.00816
AGTCGAAA | -0.00491
AGGTTCTG | -0.11
TAGTTTCA | 0.153
GTAAATAA | 0.235
GACAGTCA | -0.0745
AGTAGCTC | -0.0661
ATATGCCG | 0.0332

Sequence | PBM E-score
CACCTCGG | -0.183
TACATGAA | 0.0954
GGAACTCC | -0.258
ACTGGACT | -0.0619
GTCCTGTA | -0.0116
GACATAAA | 0.251
GTATCCTA | -0.0829
AGGACATA | 0.0205
CACAGACG | 0.0844
CCGGGTGA | -0.164
CTCGGCAG | -0.195
AAGTGCGT | 0.272
GCATAAAA | 0.0687
AAGCACCT | -0.161
ATATTGGC | 0.0765
CACCTGCG | -0.158
CGTCCCGC | -0.0792
AACGTTCG | 0.141
ACTCGTGA | 0.142
AAGCTTTG | -0.16
AAGATAGC | -0.0196
ATGTGAGC | -0.00412
TCAGGTCA | -0.00471
ACCGTCCC | -0.249
CTTCTAGA | 0.00173

Sequence | PBM E-score
GAAAGAGA | 0.0191
AACTTCCG | -0.0705
ATCCGCTG | -0.251
ATGCAGTA | 0.0493
ACTTTAAT | 0.141
ACGGAGCG | -0.0203
AACAGAAT | 0.0854
GTATTCAA | 0.182
CCCTGTCA | -0.188
AATGCAAT | -0.0187
GGTTGTTA | 0.119
CGAACCAG | -0.102
TCTACCAA | 0.0286
AGGGCAGA | -0.221
ACCCTGGA | -0.269
ATCGAGCG | -0.0477
ACAGACCT | -0.0535
GATCTACA | 0.152
AAAATTCA | 0.232
CAAAGGTC | -0.248
AGTACCCG | -0.154
ACGGTTGA | -0.0163
AATCGGAT | 0.0262
CCAGTCGA | -0.113
AGTCTTCG | -0.0104

Sequence | PBM E-score
GGGAACGA | -0.0709
CAGTGGGA | -0.244
CATCAAAC | 0.0279
GGGTTGGA | -0.175
CTTACGGA | 0.0115
CGGAGAAG | -0.339
CCCACAAA | 0.0826
AAATAGTG | 0.119
AGTAAGAT | 0.0634
CTCCTGGC | -0.186
AACTCTCA | 0.0877
GACTGGAA | -0.0795
AGGCGCCC | -0.343
CGACAGTA | -0.0872
ATATTGCC | -0.0187
AACACACC | 0.055
AGTACATC | 0.142
ACAAAGTA | 0.234
ACGCCCAA | -0.0309
CGGCTGGA | -0.286
AGTAATAC | 0.0785
AGTGAATA | 0.145
GGCGCAAC | 0.0247
AAAGTAAC | 0.0224
ACCTCTAG | -0.11

Sequence | PBM E-score
AAGGAAGG | -0.117
GCTGTCAA | -0.0369
TCAGAACA | 0.143
CACTAGTC | -0.115
GTGCACTA | 0.0334
ACCAGTGC | -0.295
AAGTGAGT | -0.114
CGGTAAGA | -0.0828
CCCACGGG | -0.323
AACTGTGC | -0.0382
CAAGCTCC | -0.175
CATTGCGC | 0.168
AATTCCCT | 0.0113
GGCACCAC | -0.0296
TAAGTATA | 0.181
GCGAGTAA | -0.0414
ATAGACCA | -0.119
TCCCCAGA | -0.0684
ATCACCGA | 0.127
AATATATG | 0.153
ACACGGGC | -0.32
AGTACTCC | -0.3
CGTCAGCA | 0.283
GATCTAAC | 0.142
AATTTTCT | 0.15

Sequence | PBM E-score
AACAGTCT | -0.0828
ATTTGAAC | -0.033
ATAAATCC | -0.0598
AACAAAGT | -0.0558
CCCGATTC | -0.0716
ACACTGAC | 0.115
CGATACAC | -0.00487
CTTCGTCA | 0.412
CCCGCCAC | 0.0435
AAAGGGCG | -0.262
TACGCCAA | 0.183
CGCCGAGA | -0.265
CATCAGCA | 0.0784
CGTGGCTA | 0.114
ACCGTTCG | 0.00583
AATCAATA | 0.134
CATTGGGA | -0.0786
GATCCATC | -0.0717
ACGAAGAC | 0.00875
CGCTCTGA | 0.0109
CCCCGGTC | -0.419
AACCAATA | 0.195
AAGTGTTG | 0.204
CCCCTCCG | -0.168
AACGAACC | 0.0276

Sequence | PBM E-score
TACAGTCA | 0.192
CCAGTTGC | -0.17
TGCCCCCA | -0.204
TGAGAGCA | -0.0137
ACAGCGAA | -0.0485
ATCATTAA | 0.239
AAATCTGT | 0.0176
CAGTGTTC | -0.0083
ATCTCGTC | 0.157
CCACTGCG | 0.0633
AGCCCAAG | -0.135
AAAATAGT | 0.0671
ACAAGCGA | 0.109
GAGCGGCC | -0.195
CCTGATAC | 0.0648
CAAGAGGC | -0.252
GATCTCTA | -0.051
CCTTCGAC | -0.123
CACGCTGC | -0.102
ACTTAACG | 0.127
AGGTCCAC | -0.327
AAAGCGGT | -0.0789
ATGTTCGC | -0.0744
CACCTATG | -0.062
ACCTGTCA | -0.176

Sequence | PBM E-score
CATGTTCC | -0.105
GCGTGCTA | 0.0352
CTGCTCTA | -0.058
ATAGATGG | -0.264
CGGCACGA | -0.0667
ACACCTAG | -0.225
CAATTATA | 0.164
CGCCTTTA | 0.137
CGGTAGTA | -0.0889
GCTTGTGA | -0.0445
CCAGTCTA | -0.255
ACGGGTGC | -0.207
GCTGCCTA | -0.13
AAATCTAC | 0.178
CGCCAACA | -0.0268
CTTCTACA | 0.00657
GCAGGGAA | -0.228
CTTGTAAA | 0.107
AAAACCGT | 0.0625

Reference: the supplement of paper PMC3334620
